“And” between values parts separate entries of the source, which are not always exact repeats. Equal entries are not always repeated. The shares of active, inactive and inconclusive entries below differ from those in the screen. For part of these data: No potency is given beside an inconclusive call; the fits are too rough. More than one record can exist for a structure, and the calls need not agree. The source made the active and inactive calls. Unless noted, the call rests on the fitted dose curve; in most records, active means well fitted curve in the direction sought with a large enough effect in the repeat runs; inconclusive means weak or mixed curves; inactive means no such curve, though single readings can be large; an effect the other way counts as inactive or inconclusive.
What was measured:
[1] = qHTS assay to identify small molecule that activate the aryl hydrocarbon receptor (AhR) signaling pathway - cell viability counter screen (AID 743086); further: nearly all actives have a fitted effect of over 45% in size; further: potency means the concentration at half of the fitted maximal effect;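 on viability change, negative = cytotoxic: HepG2 liver cells carrying the AhR DRE luciferase reporter; on the % scale 0 is the no-effect control and ±100 the full control effect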
In short: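 HepG2-AhR-luc (HG2L7.5c1) cells, 4000/well, were preincubated 5 h at 37C, exposed to compound in qHTS format for 24 hr at 37C, then given CellTiter-Fluor for 30 min; viability was read as fluorescence in the reporter wells.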

[2] = qHTS assay to identify small molecule antagonists of the peroxisome proliferator-activated receptor gamma (PPARg) signaling pathway - cell viability counter screen (AID 743194); conditions: PPARg-bla HEK293H viability, CellTiter-Glo luminescence, 17 h, co-treated with 50 nM rosiglitazone; activity change, negative = cytotoxicity: at 62.6 µM (top of the series) unless noted; further: nearly all actives have a fitted effect of over 55% in size; further: potency means the concentration at half of the fitted maximal effect
In short: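 PPARg-UAS-bla HEK293H cells were plated, rested 5 h at 37 C, then treated with compounds plus rosiglitazone (50 nM final) for 17 h at 37 C; viability was then read by CellTiter-Glo luminescence after 30 min at room temperature.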

[3] = qHTS assay for small molecule agonists of the antioxidant response element (ARE) signaling pathway (AID 743202; active means well fitted activation curve with a large enough effect in the signal ratio in the repeat runs, not every such curve was filed as active; inconclusive means weak or mixed curves, or effect the other way; inactive means no such curve, though single readings can be large or run the other way; the % refers to the signal ratio; further: potency means the concentration at half of the fitted maximal effect; on activation: on the % scale 0 is the no-effect control and ±100 the full control effect); conditions: HepG2 ARE-bla reporter, beta-lactamase FRET, 16 h; activation: at 73.3 µM (top of the series) unless noted
In short: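 Steps: seed ARE-bla HepG2 cells (2,000/well); incubate 5 h at 37 C; add compounds by pin tool; incubate 16 h at 37 C; add FRET substrate; read fluorescence after 2 h at RT.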

[4] = qHTS assay for small molecule activators of the heat shock response signaling pathway (AID 743210; active means well fitted activation curve with a large enough effect in the signal ratio in the repeat runs, with a control signal flat, not every such curve was filed as active; inconclusive means weak or mixed curves; the % refers to the signal ratio; further: potency means the concentration at half of the fitted maximal effect); conditions: HeLa HSE-bla reporter, beta-lactamase ratio, 5 h; activation: at 62.6 µM (top of the series) unless noted
In short: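 Activation of heat shock element-controlled beta-lactamase expression is measured in HeLa cells by LiveBLAzer FRET fluorescence, with compound exposure lasting 5 h at 37 C and substrate loading 2.5 h at room temperature.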

[5] = biological target: Peroxisome proliferator-activated receptor gamma (Homo sapiens) (UniProt P37231); test: qHTS assay to identify small molecule agonists of the peroxisome proliferator-activated receptor gamma (PPARg) signaling pathway (AID 743094; active means well fitted activation curve with a large enough effect in the signal ratio in the repeat runs, not every such curve was filed as active; inconclusive means weak or mixed curves, or effect the other way; inactive means no such curve, though single readings can be large or run the other way; the % refers to the signal ratio; further: potency means the concentration at half of the fitted maximal effect; on activation: on the % scale 0 is the no-effect control and ±100 the full control effect); conditions: HEK293H PPARg-UAS-bla, beta-lactamase FRET ratio, 17 h; activation: at 57 µM (top of the series) unless noted
Chain of UniProt P37231 (P37231 whole entry, looked up): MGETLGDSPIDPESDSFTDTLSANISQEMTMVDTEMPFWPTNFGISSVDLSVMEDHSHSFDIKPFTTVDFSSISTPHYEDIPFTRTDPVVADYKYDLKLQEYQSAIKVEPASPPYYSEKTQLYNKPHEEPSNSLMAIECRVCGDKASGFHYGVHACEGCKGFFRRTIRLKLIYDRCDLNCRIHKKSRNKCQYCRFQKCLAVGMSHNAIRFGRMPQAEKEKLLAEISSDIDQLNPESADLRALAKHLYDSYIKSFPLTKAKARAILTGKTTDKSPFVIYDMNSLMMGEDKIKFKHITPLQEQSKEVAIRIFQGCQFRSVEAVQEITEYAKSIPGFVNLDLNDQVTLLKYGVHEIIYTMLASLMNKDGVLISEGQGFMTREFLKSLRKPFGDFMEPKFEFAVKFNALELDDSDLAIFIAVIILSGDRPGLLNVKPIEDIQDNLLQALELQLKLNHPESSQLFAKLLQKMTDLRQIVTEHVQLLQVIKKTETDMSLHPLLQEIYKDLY
In short: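 Reporter activation was scored by fluorescence of cleaved LiveBLAzer B/G substrate (1 h, room temperature) in PPARg-bla HEK293H cells previously treated 17 h at 37C with DMSO-dissolved compounds.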

[6] = biological target: Peroxisome proliferator-activated receptor gamma (Homo sapiens) (UniProt P37231); test: qHTS assay to identify small molecule antagonists of the peroxisome proliferator-activated receptor gamma (PPARg) signaling pathway (AID 743191; calls by dose curve; further: nearly all actives have a fitted effect of over 30% in size; further: potency means the concentration at half of the fitted maximal effect; on ratio activity, negative = inhibition: on the % scale 0 is the no-effect control and ±100 the full control effect); conditions: HEK293H PPARg-UAS-bla, beta-lactamase ratio, antagonist, 17 h; ratio activity, negative = inhibition: at 62.6 µM (top of the series) unless noted
In short: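 GeneBLAzer PPARg UAS-bla HEK293H cells carrying a UAS-driven beta-lactamase reporter were plated at 3000 cells/well, preincubated 5 h at 37C, then given compound for 17 h at 37C; LiveBLAzer B/G FRET substrate was read after 1 h at room temperature.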

[7] = qHTS assay for small molecule agonists of the antioxidant response element (ARE) signaling pathway - cell viability counter screen (AID 743203; calls by dose curve; further: on the % scale 0 is the no-effect control and ±100 the full control effect; nearly all actives have a fitted effect of over 55% in size); conditions: ARE-bla HepG2 viability, CellTiter-Glo luminescence, 16 h; viability change, negative = cytotoxic: at 73.3 µM (top of the series)
In short: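 Viability counter screen: stably transfected ARE-bla HepG2 line, 16 hrs compound exposure at 37C/5% CO2, ATP-based CellTiter-Glo luminescence measured in the reporter wells.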

[8] = qHTS assay for small molecule activators of the heat shock response signaling pathway - cell viability counter screen (AID 743209); conditions: HSE-bla HeLa viability, CellTiter-Glo luminescence, 5 h; activity change, negative = cytotoxicity: at 62.6 µM (top of the series) unless noted; further: nearly all actives have a fitted effect of over 50% in size; further: potency means the concentration at half of the fitted maximal effect
In short: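 Viability of HSE-bla HeLa cells is measured with CellTiter-Glo in the wells already used for the reporter read. Compound exposure lasts 5 h at 37 C, and luminescence is read after 30 min at room temperature.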

[9] = qHTS assay to identify small molecule agonists of the peroxisome proliferator-activated receptor delta (PPARd) signaling pathway - cell viability counter screen (AID 743211); conditions: PPARd-bla HEK293H viability, CellTiter-Glo luminescence, 17 h; activity change, negative = cytotoxicity: at 62.6 µM (top of the series); further: potency means the concentration at half of the fitted maximal effect; nearly all actives have a fitted effect of over 55% in size
In short: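 PPARd-bla HEK293H cells (3000/well) were pre-incubated 5 h at 37 C, then exposed to compound for 17 h at 37 C. After 2 h with LiveBLAzer substrate, CellTiter-Glo was added to the same wells; luminescence read after 30 min at room temperature.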
Tags describe the fitted curve by direction and shape or compound fluorescence and quenching.

Structure (SMILES): Nc1cccc2c(N)cccc12
- Potency [1]: inconclusive [phenotype inactive, full curve, poor fit]
- Potency [2]: inconclusive [rising, full curve, poor fit]
- Potency [3]: inconclusive [activator]
- Potency [4]: inconclusive [activator, single point]

Structure (SMILES): CC(CO)c1ccccc1 (stereo not drawn)
- Potency [1]: inactive
- Potency [3]: inactive

Structure (SMILES): O=C(O)c1cccc(C(F)(F)F)c1
- Potency [5]: inactive

Structure (SMILES): CC1=Nc2ccc3ccccc3c2C1(C)C
- Potency [1]: active: 54.5 µM
- Potency [3]: inconclusive [rising, partial curve, poor fit]
- Potency [4]: inconclusive [activator]

Structure (SMILES): Nc1cccc2c1CN(C1CCC(=O)NC1=O)C2=O (stereo not drawn)
- Potency [1]: inactive
- Potency [6]: inactive
- Potency [7]: inactive

Structure (SMILES): Cn1c(=O)c2c(ncn2C)n(C)c1=O
- Potency [1]: active: 69.4 µM
- Potency [3]: inconclusive [falling, partial curve]
- Potency [8]: inconclusive [cytotoxic, partial curve, poor fit]

Structure (SMILES): COc1cc(Nc2c(C#N)cnc3cc(OCCCN4CCN(C)CC4)c(OC)cc23)c(Cl)cc1Cl
- Potency [1]: active: 13.3 µM
- Potency [2]: active: 21.1 µM
- activation [3]: inconclusive: -61%
- Potency [4]: inconclusive [activator, partial curve]

Structure (SMILES): OC12N=C(c3ccccc3)SC1Cc1cc(Cl)ccc12 (stereo not drawn)
- Potency [1]: inconclusive [falling, single point]
- Potency [6]: inconclusive [inhibitor, partial curve, poor fit]
- Potency [3]: inconclusive
- activation [4]: inconclusive: 6.8%
- Potency [9]: inconclusive [cytotoxic, partial curve, poor fit]

Structure (SMILES): NC(=O)c1ccc([N+](=O)[O-])cc1
- Potency [1]: inactive
- activation [3]: inconclusive: 7.42%

Structure (SMILES): CN(C)/N=N/c1nc[nH]c1C(N)=O
- Potency [1]: inconclusive [falling, partial curve, poor fit]
- Potency [2]: inconclusive [rising, single point]

Structure (SMILES): C=CCOC(=O)COCCC(C)C
- Potency [5]: inactive

Structure (SMILES): CC(C)(C)c1ccccc1
- Potency [1]: inconclusive [rising, partial curve, poor fit]
- Potency [2]: inconclusive [rising, single point]
- Potency [3]: inactive
- Potency [4]: inactive

Structure (SMILES): NC(=O)N(O)[C@@H]1C=C[C@H](Oc2cccc(Oc3ccc(F)cc3)c2)C1
- Potency [1]: inconclusive [falling, single point]
- Potency [3]: active: 17.2 µM

Structure (SMILES): CC1(C)CC(O)CC(C)(C)N1
- Potency [1]: inactive
- Potency [8]: inactive

Structure (SMILES): O=C(O)c1ccc(O)cc1
- Potency [1]: inactive
- Potency [2]: inconclusive [rising, single point]
- activation [3]: inconclusive: -1.07% and inconclusive: -23.6%
- Potency [8]: inactive

Structure (SMILES): CCNc1ccccc1
- Potency [1]: inactive
- ratio activity, negative = inhibition [6]: inconclusive: -8.12%
- activation [3]: inconclusive: -10%
- Potency [4]: inactive
- Potency [9]: inconclusive [cytotoxic, full curve]

Structure (SMILES): c1ccc(CNc2ncnc3c2ncn3C2CCCCO2)cc1 (stereo not drawn)
- Potency [5]: inactive
- ratio activity, negative = inhibition [6]: inconclusive: -14.8%
- Potency [2]: inactive
- activation [3]: inconclusive: 17.9%

Structure (SMILES): CCCCCCCC(=O)Oc1c(Br)cc(C#N)cc1Br
- activation [5]: inconclusive: -12.1%
- Potency [6]: active: 34.5 µM
- Potency [2]: inconclusive [cytotoxic, full curve]
- Potency [8]: inconclusive [cytotoxic, single point]

Structure (SMILES): NS(=O)(=O)c1cc(C2(O)NC(=O)c3ccccc32)ccc1Cl (stereo not drawn)
- Potency [5]: inactive
- ratio activity, negative = inhibition [6]: inconclusive: -7.34%

Structure (SMILES): CC(=O)S[C@@H]1CC2=CC(=O)CC[C@]2(C)[C@H]2CC[C@@]3(C)[C@@H](CC[C@@]34CCC(=O)O4)[C@H]12
- Potency [5]: inconclusive [rising, full curve]
- activation [5]: inconclusive: -15.6%
- Potency [6]: inconclusive [partial curve]
- Potency [2]: inconclusive [cytotoxic, full curve, poor fit]
- Potency [3]: inconclusive [rising, partial curve, poor fit]
- Potency [8]: inconclusive [cytotoxic, partial curve]

From PubChem BioAssay (Tox21)
